In PubChem BioAssay AID686979 (National Center for Advancing Translational Sciences (NCATS), 2013):
Values joined by “and” are separate entries in the source; they are usually repeats but may differ in a detail not shown here. Equal entries are not always repeated. Hit rate of the full screen: of about 420,000 compounds, about 50,000 (12%) were called active. Inconclusive means that the source gave no clear call. Such entries were picked first, then a sample of the others. The call rests on the fitted dose curve; in most records, active means well fitted inhibition curve with a large enough effect; inconclusive means small, poorly fitted or top-dose-only effect; inactive means flat fitted curve, though single readings scatter. Where the call is inconclusive, the potency comes from a doubtful curve fit.

assay: qHTS for Inhibitors of human tyrosyl-DNA phosphodiesterase 1 (TDP1): qHTS in cells in presence of CPT; conditions: chicken DT40 Tdp1-/-;hTDP1 cells + 20 nM CPT, ATP luminescence, 48 h; activity change, negative = growth inhibition: at 46.2 µM (top of the series) unless noted; further: nearly all actives have a fitted effect of over 55% in size
Method in brief: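 Chicken DT40 Tdp1-/- cells stably complemented with human TDP1 were seeded at 400 cells/well in medium containing 20 nM camptothecin, exposed to pin-transferred compounds, and grown at 37 °C for at least 48 hr. Viability was read as ATP luminescence.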
On the % scale 0 is the no-effect control and ±100 the full control effect; potency means the concentration at half of the fitted maximal effect; tags describe the fitted curve by direction and shape.

| Structure (SMILES) | Potency | activity change, negative = growth inhibition |
| --- | --- | --- |
| Cc1nc(-c2ccc(Cl)cc2)sc1CCNC(=O)c1cccs1 | inconclusive: 20.6 µM [inhibitor, single point] | – |
| COc1cc(C(C(=O)NCC2CCCO2)N(C(=O)Cn2nnc3ccccc32)c2ccc(C(C)=O)cc2)ccc1O (stereo not drawn) | inactive | – |
| COC(=O)c1ccc(-c2ccc(/C=N/N3C(=O)C4C5C=CC(C6CC56)C4C3=O)o2)cc1 (stereo not drawn) | inconclusive: 29.1 µM [inhibitor, single point] | – |
| O=C(COc1ccccc1C(=O)c1cnn(-c2ccccc2)c1)Nc1ccccc1 | inconclusive: 35.5 µM [inhibitor, single point] and inconclusive: 29.1 µM [inhibitor, single point] | – |
| Cc1ccc(Nc2c(-c3ccc(O)cc3)nc3cccc(C)n23)cc1 | active: 23.1 µM | – |
| CCOC(=O)N(C)c1c(CC)nc2c(OCc3ccc(C(F)(F)F)cc3)cccn12 | inconclusive: 18.4 µM [inhibitor, single point] | – |
| CCC[C@@H]1CCCO[C@@](C(=O)NCc2cc(C)n(C)n2)(C(F)(F)F)C1 | inactive | – |
| Cc1cccc(NC(=O)CSc2nncn2C)c1 | inactive | – |
| CN1CCN(C(=O)c2ccc(-c3ccc(F)c(F)c3)c3ccoc23)CC1 | active: 16.4 µM | – |
| O=C(COC(=O)c1cc[n+]([O-])cc1)Nc1ccc(Cl)cc1Cl | inactive | – |
| C=CCNC(=O)c1ccccc1NC(=O)Cc1ccccc1[N+](=O)[O-] | inactive | – |
| O=C1N=C(N2CCN(c3ccccc3)CC2)S/C1=C\c1cn[nH]c1-c1ccccc1 | active: 20.6 µM | – |
| CC(=O)Nc1nonc1-c1nnc(SCC(=O)Nc2cc(C)cc(C)c2)n1-c1ccccc1 | inconclusive: 29.1 µM [inhibitor, single point] | – |
| CCCOc1ccc(-c2nc(SC)[nH]c(=O)c2C#N)cc1OC | inconclusive: 20.6 µM [inhibitor, single point] | – |
| COC(=O)c1ccc2nc(-c3cccc(Br)c3)c(CC3CCCCC3)n2c1 | inconclusive: 25.9 µM [inhibitor, single point] | – |
| CC1CCN(C(=O)/C=C/c2ccc(C(C)(C)C)cc2)CC1 | inconclusive: 20.6 µM [inhibitor, single point] | – |
| O=c1nc(N/N=C/C=C/c2ccccc2)cn[nH]1 | inconclusive: 29.1 µM [inhibitor, single point] | – |
| O=C(CNC(=O)c1ccccc1Cl)N/N=C/c1ccc2c(c1)OCO2 | inconclusive: 29.1 µM [inhibitor, single point] | – |
| COc1cccc(/C=N/NC(=O)CNC(=O)/C=C\c2ccccc2)c1O | inconclusive: 4.11 µM [inhibitor, single point] | – |
| CCc1nnc(NC(=O)CCN(c2cc(C)cc(C)c2)S(=O)(=O)c2ccc(Cl)cc2)s1 | inconclusive: 25.9 µM [inhibitor, single point] | – |
| CCOC(=O)Cc1cc(=O)n2[nH]c(C)c(-c3ccccc3)c2n1 | – | inconclusive: -32.6% [inhibitor] |
| CCCCN(C)CCCNC(=O)c1ccc2c(c1)N(CC)C(=O)c1ccccc1S2=O (stereo not drawn) | inactive | – |
| CCOC(=O)c1c(CN2CCN(CCO)CC2)n(C)c2cc(Br)c(OC)cc12 | inconclusive: 29.1 µM [inhibitor, single point] | – |

| Structure (SMILES) | Potency | activity change, negative = growth inhibition |
| --- | --- | --- |
| O=C(c1ccc2c(c1)N(Cc1ccccc1)C(=O)c1ccccc1S2(=O)=O)N1CCCCCC1 | inconclusive: 16.4 µM [inhibitor, single point] | – |
| COc1ccc(-c2c(C)nn(-c3ccccc3)c2N)cc1 | inactive | – |
| Cc1ccc(S(=O)(=O)c2c(Nc3cc(F)ccc3F)sc(C(=O)c3ccc(F)cc3)c2N)cc1 | active: 20.6 µM | – |
| Cc1ccc(CN(Cc2ccc(C)o2)C(=S)NCC(=O)O)cc1 | inactive | – |
| COc1ccccc1OCc1ccc(C(=O)NN)o1 | inactive | – |
| CCCC1CCc2c(sc(N)c2C(N)=O)C1 (stereo not drawn) | active: 16.4 µM | – |
| COc1ccc(-c2csc(NC(=O)c3ccccc3F)c2C(=O)O)cc1 | inconclusive: 20.6 µM [inhibitor, single point] | – |
| Nc1ccccc1Nc1cc(-c2cccc(Cl)c2)nn1-c1ccccc1 | inconclusive: 20.6 µM [inhibitor, single point] | – |
| Cc1cc(NS(=O)(=O)c2c(C(=O)N3CCOCC3)c(C)n(C)c2C)ccc1Br | inconclusive: 18.4 µM [inhibitor, single point] | – |
| CN(Cc1ccccc1)c1nc(-c2ccc(F)cc2)cc(C(F)(F)F)n1 | inconclusive: 29.1 µM [inhibitor, single point] | – |
| CCCCN(C)CCNC(=O)c1cc(-c2cccnc2)nc2ccc(S(=O)(=O)N3CCC(C)CC3)cc12 | inconclusive: 29.1 µM [inhibitor, single point] and inconclusive: 18.4 µM [inhibitor, single point] | – |
| Cc1ccc(C(=O)CCC(=O)N2CCN(C/C=C/c3ccccc3)CC2)cc1 | inconclusive: 29.1 µM [inhibitor, single point] | – |
| COc1ccc(NC(=O)CN(C)C(=O)CCCN2C(=O)c3cccc4cccc(c34)C2=O)cc1 | inactive | – |
| CCc1nc2ccc(C(=O)Nc3cccc(OCC(=O)N(C)C)c3)cn2c1N(C)C(=O)c1ccncc1 | inactive | – |
| COc1cccc(S(=O)(=O)N2CCN(c3nc(-c4cccs4)nc4ccccc34)CC2)c1 | active: 14.1 µM | – |
| CCOc1ccccc1NC(=O)CN1CCC(NC(=O)c2ccccc2)CC1 | inconclusive: 23.1 µM [inhibitor, single point] | – |
| Cn1c(N)c(C(=O)COC(=O)c2ccc([N+](=O)[O-])o2)c(=O)n(C)c1=O | active: 18.4 µM | – |
| O=C(Nc1ccc(Cl)cc1Cl)c1cc(S(=O)(=O)N2CCN(c3ccccc3F)CC2)ccc1F | active: 9.2 µM | – |
| CC1(Cc2ccc(F)cc2)C(=O)Nc2ccc(S(=O)(=O)NC3CCCCC3)cc21 (stereo not drawn) | inconclusive: 25.9 µM [inhibitor, single point] | – |
| Cc1cc([N+](=O)[O-])cc(C)c1OCC(=O)N/N=C/c1ccc(OC(=O)c2ccccc2)cc1 | inconclusive: 29.1 µM [inhibitor, single point] | – |
| Cc1ccc(NC(=O)c2nnn(-c3cc(C)cc(C)c3)c2N)cc1 | inconclusive: 29.1 µM [inhibitor, single point] | – |
| COc1ccc(CC(=O)OCC(=O)N(C)C2CCS(=O)(=O)C2)cc1OC (stereo not drawn) | inactive | – |
| O=C(CN1CCc2ccccc2C1)NC1CCCC1 | inactive | – |

| Structure (SMILES) | Potency | activity change, negative = growth inhibition |
| --- | --- | --- |
| CCc1ccc(-n2c(C)nnc2SCc2nc(-c3ccc(OC)cc3)no2)cc1 | inconclusive: 29.1 µM [inhibitor, single point] | – |
| Cc1ccc(O)c(-c2cc(C(=O)Nc3ccc(S(=O)(=O)Nc4nc(C)cc(C)n4)cc3)[nH]n2)c1 | inactive | – |
| Cc1ccc(CC2CC(=O)N(Cc3ccco3)C2=O)cc1 (stereo not drawn) | inconclusive: 29.1 µM [inhibitor, single point] | – |
| Cc1ccc(-c2cc3ncc(C(=O)c4cc([N+](=O)[O-])ccc4O)cn3n2)cc1 | inconclusive: 4.61 µM [inhibitor, full curve] | – |
| CC(Sc1ccc2c(c1)OCCO2)C(=O)Nc1ncc(Cl)cc1Cl (stereo not drawn) | inconclusive: 14.6 µM [inhibitor, partial curve, poor fit] | – |
| Cc1ccc(NC(=O)Nc2cccnc2)cc1NC(=O)Nc1cccnc1 | active: 13 µM | – |
| Cc1ccc(CNC(=O)[C@@H]2CCC(=O)N2Cc2ccco2)cc1 | inactive | – |
| CN(Cc1ccccc1)C(=O)c1ccc(NC(=O)Cc2ccc(NC(=O)C3CCCN(S(=O)(=O)c4cccc([N+](=O)[O-])c4)C3)cc2)cc1 (stereo not drawn) | inconclusive: 16.4 µM [inhibitor, single point] | – |
| COc1cc(NC(=O)C2CCCC2)c(OC)cc1Cl | inconclusive: 8.2 µM [inhibitor, partial curve, poor fit] | – |
| Cc1nn(-c2ccccn2)c2c1-c1nc(N)sc1CC2 | active: 20 µM | – |
| COc1cccc(/C=C/C(=O)N(C)CC(=O)Nc2ccc(Cl)c(C(F)(F)F)c2)c1 | inconclusive: 32.6 µM [inhibitor, single point] | – |
| CC(C)c1ccc(NC(=O)N2CCCC2C(=O)Nc2ccc(-n3cnnn3)cc2)cc1 (stereo not drawn) | inactive | – |
| COc1cccc(N2CCN(C(=O)c3ccc(CSc4nc5ccncc5[nH]4)cc3)CC2)c1 | active: 18.4 µM | – |
| CCc1ccc(CN(C)C(=O)C2=CC=CN3CCS(=O)(=O)N=C23)cc1 | inactive | – |
| COCOc1cccc(CN2CCC(C)(Oc3cccc(C#N)c3)C2)c1 (stereo not drawn) | inconclusive: 32.6 µM [inhibitor, single point] | – |
| CCC(C(=O)Nc1cccc(-c2cn3cccnc3n2)c1)c1ccccc1 (stereo not drawn) | inconclusive: 23.1 µM [inhibitor, single point] | – |
| Cc1cc(N)n(-c2ccc(S(=O)(=O)N3CCCC3)cc2[N+](=O)[O-])n1 | inactive | – |
| Cc1csc(NC(=O)c2oc3ccccc3c2C)n1 | inconclusive: 29.1 µM [inhibitor, single point] | – |
| O=C1NC(=Nc2ccccc2)S/C1=C\c1ccccc1 | inconclusive: 29.1 µM [inhibitor, single point] | – |
| Cc1c(OCC(=O)NC2CC(C)(C)NC(C)(C)C2)ccc2c1oc(=O)c1ccccc12 | inconclusive: 23.1 µM [inhibitor, single point] | – |
| Cc1cc(S(=O)(=O)NC2CC(C)(C)NC(C)(C)C2)c(Cl)cc1Cl | inconclusive: 29.1 µM [inhibitor, single point] | – |
| COc1ccc(CNC(=O)CCCCCNc2nc(=S)[nH]c3ccccc23)cc1 | inconclusive: 11.6 µM [inhibitor, partial curve, poor fit] | – |
